The full ranking holds about 33,000 sequences; the median of “E-score (-0.5 to 0.5)” is about -0.035, and the highest 2% start at about 0.34. The list shows a part of the results.
Biological target: T1, Mot3 (UniProt P54785)
T1 sequence: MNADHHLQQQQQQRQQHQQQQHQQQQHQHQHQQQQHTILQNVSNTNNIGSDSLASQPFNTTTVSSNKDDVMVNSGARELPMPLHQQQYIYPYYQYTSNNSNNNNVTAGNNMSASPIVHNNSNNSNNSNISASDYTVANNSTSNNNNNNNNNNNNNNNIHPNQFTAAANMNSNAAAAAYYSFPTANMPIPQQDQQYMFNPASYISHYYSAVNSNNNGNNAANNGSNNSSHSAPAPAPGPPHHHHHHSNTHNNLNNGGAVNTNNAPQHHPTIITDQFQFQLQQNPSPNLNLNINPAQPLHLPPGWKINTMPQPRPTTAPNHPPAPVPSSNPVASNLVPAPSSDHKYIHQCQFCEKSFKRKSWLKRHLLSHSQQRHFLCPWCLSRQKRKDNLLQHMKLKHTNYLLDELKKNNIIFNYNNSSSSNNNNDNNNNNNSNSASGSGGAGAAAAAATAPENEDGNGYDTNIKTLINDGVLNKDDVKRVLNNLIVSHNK
Assay: PBM E-score (8-mer binding enrichment) (E-score (-0.5 to 0.5)); higher = stronger / more preferred TF binding; most listed sequences are background and not binding sites
Conditions: protein concentration: 200 nM; construct: GST-full length
How it was run: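 Yeast transcription factors, full-length or as DNA-binding domains, were expressed with a GST tag using PURExpress in vitro transcription/translation. At about 100-200 nM they were applied to universal all-10-mer Agilent arrays, double-stranded by primer extension on fresh or once-stripped slides. Fluorescent anti-GST detected bound protein, and masliner normalised the scans. E-scores for ungapped eight-base words, pooled with reverse complements, came from the Universal PBM Analysis Suite.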

Sequence | PBM E-score
ACGCCACG | -0.0165
CCGCCAGA | -0.197
CAGAAGGG | -0.15
GCTACCCC | -0.327
CGTACCAC | -0.0328
CAGCAGCC | -0.0453
ACGGTCAC | -0.224
AACACCTA | 0.174
CACGCAAC | 0.213
CCCATGCC | -0.107
TCTTAGCA | -0.0909
AGTAAGTG | -0.108
GGCGCGAA | -0.0685
GTGAACAC | 0.121
ATATATTA | 0.107
AGTGACCA | -0.224
AAAGGGGA | -0.194
TCCGAACA | -0.0772
ACACTGTG | 0.0126
ACACGCAC | 0.319
CGCGCGAC | -0.177
CGGCTGAC | -0.156
CTTCTCGC | -0.107
AGCTACAC | 0.207
ATCATGAG | -0.0751

Sequence | PBM E-score
GATACCTA | 0.137
ATTTCGCC | -0.0503
CGTTTCTA | 0.0975
AGCGAACG | -0.253
CGGAGCCG | -0.343
CGGTTGCA | -0.132
ACGAATCG | -0.105
GATACAGA | -0.0581
CTTAGGAC | 0.0401
CCCACGAA | -0.00562
TCCAGTAA | 0.0226
AGTGTTTG | 0.166
TACTAGCA | 0.0991
GATAGGTA | 0.27
GCTCGCGA | -0.0627
AATCCTGG | 0.0465
ACATTTAG | 0.138
TCGATCGA | -0.121
CGCCGTGC | 0.119
GAAGGTGC | 0.136
GTTCTCTA | 0.0314
CGCTTAGA | -0.237
CATGCCAG | -0.178
CCAAGATA | -0.0806
AACTGGCC | -0.0837

Sequence | PBM E-score
ACGATGTC | -0.0106
AGCGTTAT | 0.0914
GATATCTA | 0.0319
CATCGCCA | -0.0692
AAACCCTT | 0.0362
AAGTTCTC | -0.107
AGTAAGCG | -0.0636
TATGCTAA | 0.0897
CCACCGTC | -0.236
AGACAGCC | -0.0996
CCCTTTAA | 0.164
TATACGGA | -0.209
GCCTTACA | 0.313
CGGATCAC | -0.00917
CGCATTGC | 0.14
ATGCCGTA | -0.00063
CTGAACGA | -0.00312
AAGTACCG | -0.0686
CACGCCTG | 0.0646
AGCACCAA | -0.152
AAGGATTG | -0.00028
ACATCGTG | 0.193
CATCTCAC | -0.169
CTCTCTCA | -0.207
CTCCGGCC | -0.347

Sequence | PBM E-score
CACACACC | 0.192
AACCGATC | -0.0679
GTCACATA | 0.114
CCATCCGC | -0.164
AAGTTTGT | 0.0928
ATGCAGGC | 0.342
CGATCCAC | 0.063
AAAGAGGC | 0.0868
CAAGGCAG | 0.0705
AGGCGTGA | -0.106
TGGCGTAA | 0.0597
CCTCAAGG | 0.0542
GAGCCGAA | -0.298
ACTGACAC | 0.102
AAGGGAAT | 0.0135
ATTCCACC | -0.0802
CTCCTCTC | -0.368
GCCCCCAC | -0.396
ATCGAAGA | -0.0794
CGTATCGC | -0.121
ACGAGGAC | -0.0954
CGCACTAA | -0.0222
CGTAATAA | 0.288
TACAGCCA | -0.031
TTCCACAA | 0.0161

Sequence | PBM E-score
AGCGCACA | -0.0577
GTAATCAC | 0.185
CACCGAAC | -0.162
ACGTTAAT | 0.264
CCCCGTTC | -0.109
AACCGTAC | 0.0158
CGTAGTTA | 0.163
ATCGGGAA | -0.133
CACGCGTG | 0.275
TACCCAGA | -0.0882
CCGATCAG | -0.213
CCGCTCCA | -0.433
ACCCACCG | -0.207
GATAAGCC | -0.251
AGGCTCCA | 0.335
CATATTAG | 0.125
CCCGTAAA | 0.0516
CACAATTA | 0.102
ACACGGAC | 0.269
GACCTTCC | -0.0987
GACCGGTC | -0.163
GTATGTAA | 0.404
ATTACTAG | 0.24
GAAGGGGA | -0.0537
GCGGCCAA | -0.165

Sequence | PBM E-score
ATTCCTGG | -0.21
GGCTTGTA | 0.236
ACATGGGA | 0.225
AGAAACAC | 0.194
CCCGCTAC | -0.0311
ACTTACAT | 0.311
CCTCTGTC | -0.11
CACGTAAA | 0.339
AAAAGGAT | 0.157
GACGTCAC | -0.0748
ACCATAAC | -0.0601
CGTTTCTC | -0.161
GCTGTCCC | -0.207
CGCCCCAA | -0.108
GAGTTCCA | -0.142
AGCGTGCC | 0.343
ACTGGCTA | -0.072
CTCAGTAC | -0.0513
AGGACCAA | 0.0511
AACTCCAA | 0.0574
CCACCTAC | -0.153
CATAAAAG | 0.089
CAACAAGA | 0.123
ACATCGAA | -0.011
AGATAGGA | -0.164

Sequence | PBM E-score
AGGAGTAG | -0.152
ACAGGGGT | 0.0837
AGCAGCAA | -0.155
GGGCGGGA | -0.206
AGCGTTTG | -0.298
CGGAGTGC | -0.218
CCGTCCAA | -0.272
ACCAACAC | 0.204
CGAGTACA | 0.166
AGGATCGC | -0.0405
ACGACCGT | -0.178
CTAAGAAA | 0.08
AGCTGCAC | -0.0112
GACTCCAC | -0.34
ACTACCCT | -0.181
ACCCTTAA | -0.0329
ACTCTTTG | -0.11
TCGGGCCA | -0.203
CCAACCAC | 0.083
AACTCACA | 0.0203
CCCATATC | -0.181
ATTTCCAG | 0.0581

— the supplement of paper PMC3334620
